Recombinant human monoclonal antibodies (heavy:light variable regions). ELISA EC50 on the named antigen, from 10 µg/ml down; IC50 / IC90 against spike pseudovirus on 293T-ACE2 cells, 48 h; lower = stronger. Calls: IC50 above 1,000 ng/ml = non-neutralizing; EC50 above 2,000 ng/ml = non-binder. The source prints 1000 for neutralization that was not reached; it is given as >1000 ng/ml. A few antibodies were first reported in earlier work of the same group.
B1: C2061 (protein)
chain 1: VQLVESGGGVVQPGRSLRLSCAASGFTFRSYGMHWVRQAPGKGLEWVAVISYDASNKDYADSVKGRFTISRDNSKNTLYLQMNSLRAEDMAVYYCAKANAPYCSGGNCYSGYFDYWGQGTLVTVSS
chain 2: IRMTQSPSSLSASVGDRVTITCQASQDISNYLIWYQLKPGKAPKLLIYDASNLEAGVPSRFRGSGSGTDFTFTISSLQPEDIATYYCQQYDNLPLTFGPGTKVDIK
B2: C2465 (protein)
chain 1: VQLVESGGGVVQPGRSLRLSCAASGFTFSSYAMHWVRQAPGKGLEWVAVISYDGSNKYYADSVKGRFTISRDNSKYTLYLQMNSLRAEDTAVYYCASLITMVRGVPDYWGQGTLVTVSS
chain 2: DIQLTQSPSSLSASVGDRVTITCRASQNISNYLNWYQQKPGKAPKLLIYAASSLQSGVPSRFSGSGSGTDFTLTISSLQPEDFASYYCQQSYSTPITFGQGTRLEIK
B3: C2065 (protein)
chain 1: EVQLLESGGGLVQPGGSLRLSCAASRFTFGSYAMSWVRQAPGKGLEWVSTISGRGGSTYYADSVKGRFTISRDNSKNTLYLQMNGLRAEDTAVYYCAKGGDTAMVNAEYFQHWGQGTLVTVSS
chain 2: DIQMTQSPSTLSASVGDRVTITCRASQSISSWLAWYQQKPGKAPKLLIYDASSLESGVPSRFSGSGSGTEFTLTISSLQPDDFATYYCQQYKSLALTFGGGTKVEIK
B4: C2070 (protein)
chain 1: EVQLVQSGAEVKKPGESLKISCKGSGYRFTSYWIGWVRQMPGKGLEWMGIIYPDDSDIRYSPSFQGQVTISADKSISTAYLQWSSLKASDTAMYYCARQGPMGGGPFDYWGQGTLVTVSS
chain 2: DIQMTQSPSTLSASVGDRVTITCRASQSIDSWLAWYQQKPGKAPKFLIYDASSLESGVPSRFSGSGSGTEFTLSISSLQPDDFATYYCQQYSSNPYTFGQGTKLEIK
B5: C2072 (protein)
chain 1: QVQLVQSGAEVKKPGSSVKVSCKASGGTFSSYAISWVRQAPGQGLEWMGGIIPMFGTANYAQKFQGRVTITADESTSTDYMELSSLRSEDTAVYYCARGRAAAAPPFTWFDPWGQGTLVTVSS
chain 2: ELTQPPSVSGAPGQRVTISCTGSSSNIGAGYDVHWYQQLPGTAPKLLISGNSNRPSGVPGRFSGSKSGTSASLAITGLQAEDEADYYCQSYDSSLSGSVFGGGTKLTVL
B6: C1168 (protein)
chain 1: QVQLVQSGAEVRKPGASVKVSCKASGYTFTNYYLHWVRHAPGQGLEWMGIINPSGGSTTYAQKFQGRVTLTTDTSTSTVYMELSSLRSEDTAVYYCARDSAFIPHIEYGMDVWGQGTTVTVSS
chain 2: QSALTQPPSASGSPGQSVTISCTGTSSDVGGYNYVSWYQQHPGKAPKVMIYEVTKRPSGVPDRFSGSKSGNTASLTVSGLQAEDEADYYCSSYAGSNNLLFGGGTKLTVL
B7: C1174 (protein)
chain 1: QVQLVESGGGVVQPGKSLRLSCAASGFTFSSFGMHWVRQAPGKGLDWVAGISYDGSNKYCADSVKGRFTISRDNSKNTLYLQMNSLRVEDTAVYYCAKDPRNGISGTTGYFDYWGQGTLVTVSS
chain 2: SYELTQPPSVSVAPGQTARITCGGNNIGSKSVHWYQQKPGQAPVLVVYDDSDRPSGIPERFSGSNSGNTATLTISRVEAGDEADYYCQVWDSSSDHFWVFGGGTKLTVL
B8: C2483 (protein)
chain 1: EVQLVESGGGLVQPGRSLRLSCSVSGFTFDEYAMHWVRQAPGKGLEWVSGISWNGGTIGYADSVKGRFTISRDNAKNSLYLQMNSLRAADTALYYCAKDIYPLDYGDAFFFDSWGQGTLVTVSS
chain 2: EIVLTQSPGTLSLSPGERVTLSCRASQRVSSSYLAWYQQKPGQAPRLLIYGASSRAIGIPDRFSGGGSGTDFTLTISRLEPEDFAVYYCQCYGSTPPITFGPGTKVDIK
B9: C1246 (protein)
chain 1: QVQLVESGGGLVKPGGSLRLSCAASGFTFSDYYMSWIRQAPGKGLEWVSYISSSGSTIYYADSVKGRFTISRDNAKNSLYLQMNSLRAEDTAVYYCAPQLWLRGAFDYWGQGTLVTVSS
chain 2: NFMLTQPHSVSESPGKTVTISCTRSSGSIASNYVQWYQQRPGSSPTTVIYEDNQRPSGVPDRFSGSIDSSSNSASLTISGLKTEDEADYYCQSYDSSNHAVFGGGTQLTVL
B10: C1251 (protein)
chain 1: QLQLQESGPGLVKPSETLSLTCAVSGGSISSSSYFWGWIRQPPGRGLEWIGNIYYSGTTYYNPSLKSRVTISVDASKNQFSLKLTSVTAADTAVYYCATQGWLRGYFDYWGQGTLVTVSS
chain 2: NFMLTQPHSVSESPGKTVTISCTGRSGSIASNYVQWYQQRPGSAPSTVIYEDNQRPSGVPDRFSGSIDSSSNSASLTISGLKTEDEADYYCQSYDSSNLVVFGGGTKLTVL
B11: C1252 (protein)
chain 1: QLQLQESGPGLVKPSETLSLTCTVSGGSISSSPYYWGWIRQPPGKGLEWIGSFYYGGSTNYNPSLKSRVTISVDTSKNQFSLKLTSVTAADTAVYYCARREWLRGGFDYWGQGTLVTVSS
chain 2: NFMLTQPHSVSESPGKTVTISCTGSSGSIASNYVQWYQQRPGSAPTTVIYEDNQRPSGVPERFSGSIDSSSNSASLTISGLKTEDEADYYCQSYDNSNLVFGGGTKLTVL
B12: C1253 (protein)
chain 1: QLQLQESGPGLVKPSETLSLTCTVSGGSISSSSYFWGWIRQPPGKGLEWIGTIYFSGSTYYNPSLKSRVTISVDTSKNQFSLRLSSVTAADTAVYYCARLTWLRGNFDYWGQGTLVTVSS
chain 2: NFMLTQPHSVSESPGKTVTISCTGSSGYIASNYVQWYQQRPGSAPTTVIYEDNQRPSGVPDRFSGSIDSSSNSASLTISGLKTEDEADYYCQSYDSANWVFGGGTKLTVL
B13: C1264 (protein)
chain 1: EVQLLESGGGLVQPGGSLRLSCAASGFTFSSSAMSWVRQAPGKGLEWVSAFSASGGSTYYADSVKGRFTISRDNSKNTLFLQMNSLRAEDTAVYFCAKTNTGWYLGIDYWGPGTLVTVSS
chain 2: NFMLTQPHSVSESPGKTVTISCTGSSGSIASNYVQWYQQRPGSAPTTVIYEDNQRPSGVPDRFSGSIDSSSNSASLTISGLKTEDEADYYCQSYDSSNLWVFGGGTKLTVL
B14: C1415 (protein)
chain 1: EVQLVESGGGLVQPGGSLRLSCAASGFTVSSNYMSWVRQAPGKGLEWVSLIYSGGSTYYADSVKGRFTISRDNSKNTLYLQMNSLRAEDTAVYYCARDYGAYGRRNDFWGQGTLVTVSS
chain 2: DIQMTQSPSSLSASVGDRVTITCQASQDISNYLNWYQQKPGKAPKLLIYDASNLETGVPSRFSGSGSGTDFTFTISSLQPEDIATYYCQQYDNLPRTFGQGTKLEIK
B15: C1416 (protein)
chain 1: EVQLVESGGGLVQPGRSLRLSCAASGFTFDDYAMHWVRQAPGKALEWVSGISWNSGSIAYADSVRGRFTISRDNAKNSLYLQMNSLRAEDTALYYCAKDQGNYGDYFDYWGQGTLVTVSS
chain 2: SYELTQPPSVSVAPGKTARITCGGNNIGSKSVHWYQQKPGQAPVLVIYYDSDRPSGIPERFSGSNSGNTATLTISRVEAGDEADYYCQVWDSTSDHYVFGDHYVFGTGTKVTVL
B16: C1418 (protein)
chain 1: QVQLVESGGGVVQPGRSLRLSCAASGFTFSTYAMHWVRQAPGKGLEWVAVISYDGSNRYYADSVKGRFTISRDNSKNTLYLQMNSLRAEDTAVYYCARDGRTITMVQGVISGAFDIWGQGTMVTVSS
chain 2: DIQMTQSPSSLSASVGDRVTITCQASQDISNYLNWFQQKPGKAPKLLIYDASNLETGVPSRFSGSGSGAHFTFTISSLQPEDIATYYCQQYDNLPFTFGPGTKVDIK

molecular target: SARS-CoV-2 Wuhan-Hu-1 spike pseudovirus; assay: pseudovirus neutralization IC50; higher = weaker neutralization
Description: (§1)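 Single-round luciferase reporter pseudovirus mixed with antibody dilutions and put on 293T-ACE2 cells for 48 h; signal relative to no-antibody wells, four-parameter fit.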

Binder	pseudovirus neutralization IC50
B1	> 1 mg/L
B2	0.0267 mg/L
B3	0.00518 mg/L
B4	0.653 mg/L
B5	0.0232 mg/L
B6	> 1 mg/L
B7	> 1 mg/L
B8	> 1 mg/L
B9	> 1 mg/L
B10	0.14 mg/L
B11	0.133 mg/L
B12	0.0857 mg/L
B13	0.28 mg/L
B14	0.0408 mg/L
B15	> 1 mg/L
B16	0.00412 mg/L

molecular target: SARS-CoV-2 Wuhan-Hu-1 spike pseudovirus; assay: pseudovirus neutralization IC90; higher = weaker neutralization
Description: as §1

Binder	pseudovirus neutralization IC90
B1	> 1 mg/L
B2	> 1 mg/L
B3	0.0573 mg/L
B4	> 1 mg/L
B5	0.389 mg/L
B6	> 1 mg/L
B7	> 1 mg/L
B8	> 1 mg/L
B9	> 1 mg/L
B10	> 1 mg/L
B11	0.913 mg/L
B12	0.391 mg/L
B13	> 1 mg/L
B14	0.181 mg/L
B15	> 1 mg/L
B16	0.0234 mg/L

molecular target: SARS-CoV-2 Wuhan-Hu-1 spike receptor-binding domain; assay: ELISA binding EC50; higher = weaker binding; ELISA of recombinant human antibody on coated antigen, from 10 µg/ml in fourfold dilutions; four-parameter fit.

Binder	ELISA binding EC50
B1	0.00171 mg/L
B2	0.0016 mg/L
B3	0.00172 mg/L
B4	0.0024 mg/L
B5	0.00296 mg/L
B6	0.00468 mg/L
B7	0.0021 mg/L
B8	0.00339 mg/L
B9	0.00286 mg/L
B10	0.00271 mg/L
B11	0.0026 mg/L
B12	0.00372 mg/L
B13	0.00245 mg/L
B14	0.00259 mg/L
B15	0.00314 mg/L
B16	0.002 mg/L
